Measurements published in publication PMC12402098, “YTHDF3 recognizes DNA N6-methyladenine and recruits ALKBH1 for 6mA removal from genomic DNA” (The EMBO Journal, 2025).
These are yes or no findings as the source states them, for the method shown. For some of these results: In cells and extracts the contact can be indirect. Some results given as binding are weak or reduced against the parent protein; the word gives no strength. Where a sequence is shown, tags or fusion partners need not be part of it. Each block holds one binder with its values, some of them ahead of it.

Legend:
YTHDF3-HA [1] = target: T1, YTHDF3-HA (UniProt Q7Z739); assay: co-IP; as Fig. 4A but in the presence of DNase treatment of the complexes; HeLa cells transfected with YTHDF3-HA or ALKBH1-Flag; western blot
T1 sequence: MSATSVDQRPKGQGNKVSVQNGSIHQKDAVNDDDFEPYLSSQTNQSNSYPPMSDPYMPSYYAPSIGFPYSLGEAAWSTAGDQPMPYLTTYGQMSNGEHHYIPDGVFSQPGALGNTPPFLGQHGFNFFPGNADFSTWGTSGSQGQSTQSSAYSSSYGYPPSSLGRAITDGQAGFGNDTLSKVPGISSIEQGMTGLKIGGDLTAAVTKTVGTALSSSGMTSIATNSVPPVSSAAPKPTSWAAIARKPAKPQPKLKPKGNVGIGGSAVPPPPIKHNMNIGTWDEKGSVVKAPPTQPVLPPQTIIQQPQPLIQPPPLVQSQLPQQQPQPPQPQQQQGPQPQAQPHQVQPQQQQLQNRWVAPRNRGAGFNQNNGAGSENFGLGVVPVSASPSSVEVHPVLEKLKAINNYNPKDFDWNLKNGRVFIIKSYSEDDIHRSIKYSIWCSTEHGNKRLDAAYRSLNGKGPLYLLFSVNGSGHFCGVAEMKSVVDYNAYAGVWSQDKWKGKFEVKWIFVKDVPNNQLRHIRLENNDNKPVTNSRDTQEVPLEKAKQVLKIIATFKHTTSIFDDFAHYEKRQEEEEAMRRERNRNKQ

YTHDF3-HA [2] = target: T1, YTHDF3-HA; assay: co-IP; anti-FLAG or anti-HA antibodies and protein A/G agarose beads; transfected cells (HeLa in Fig. 4A); western blot
YTHDF3-Flag = target: T2, YTHDF3-Flag (UniProt Q7Z739); assay: as above
T2 sequence: T1 sequence

YTHDF3-His = target: T3, YTHDF3-His (UniProt Q7Z739 1-585); assay: co-purification of coexpressed proteins on a His-tag resin; ALKBH1 and YTHDF3-His coexpressed in E. coli BL21 (DE3); complex purified from the supernatant with a His-tag protein purification kit
T3 construct: YTHDF3 inserted into pET 26b vector; pET26b would give a C-terminal His tag (surmise); also called recombinant YTHDF3; wild-type YTHDF3; source: E. coli BL21 (DE3), purified (His-tag protein purification kit); also coexpressed with ALKBH1 in E. coli, in lysate
T3 sequence (looked up): T1 sequence

ALKBH1-Flag [3] = target: T4, ALKBH1-Flag (UniProt Q13686); assay: co-IP; as Fig. 4A but in the presence of DNase treatment of the complexes; HeLa cells transfected with YTHDF3-HA or ALKBH1-Flag; western blot
T4 sequence: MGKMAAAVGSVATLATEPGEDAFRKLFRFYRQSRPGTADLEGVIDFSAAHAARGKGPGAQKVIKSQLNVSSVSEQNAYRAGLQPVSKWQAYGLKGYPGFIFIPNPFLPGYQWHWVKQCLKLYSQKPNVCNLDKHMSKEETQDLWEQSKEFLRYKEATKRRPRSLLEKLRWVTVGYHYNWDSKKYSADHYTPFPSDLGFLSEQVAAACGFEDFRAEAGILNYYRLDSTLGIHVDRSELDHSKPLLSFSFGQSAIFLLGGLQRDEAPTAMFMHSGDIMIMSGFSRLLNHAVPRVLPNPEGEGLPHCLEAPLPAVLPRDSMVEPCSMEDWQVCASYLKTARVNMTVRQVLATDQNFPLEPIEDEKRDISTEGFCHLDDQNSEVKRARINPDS

ALKBH1-Flag [4] = target: T4, ALKBH1-Flag; assay: co-IP; anti-FLAG or anti-HA antibodies and protein A/G agarose beads; transfected cells (HeLa in Fig. 4A); western blot

B1: ALKBH1 (endogenous) (enzyme, UniProt Q13686 1-389)
chain: T4 sequence
- binding (YTHDF3-HA [1]): binds
- binding (YTHDF3-HA [2]): binds
- binding (YTHDF3-Flag): binds

B4: YTHDF1 (protein, UniProt Q9BYJ9 1-559)
chain: MSATSVDTQRTKGQDNKVQNGSLHQKDTVHDNDFEPYLTGQSNQSNSYPSMSDPYLSSYYPPSIGFPYSLNEAPWSTAGDPPIPYLTTYGQLSNGDHHFMHDAVFGQPGGLGNNIYQHRFNFFPENPAFSAWGTSGSQGQQTQSSAYGSSYTYPPSSLGGTVVDGQPGFHSDTLSKAPGMNSLEQGMVGLKIGDVSSSAVKTVGSVVSSVALTGVLSGNGGTNVNMPVSKPTSWAAIASKPAKPQPKMKTKSGPVMGGGLPPPPIKHNMDIGTWDNKGPVPKAPVPQQAPSPQAAPQPQQVAQPLPAQPPALAQPQYQSPQQPPQTRWVAPRNRNAAFGQSGGAGSDSNSPGNVQPNSAPSVESHPVLEKLKAAHSYNPKEFEWNLKSGRVFIIKSYSEDDIHRSIKYSIWCSTEHGNKRLDSAFRCMSSKGPVYLLFSVNGSGHFCGVAEMKSPVDYGTSAGVWSQDKWKGKFDVQWIFVKDVPNNQLRHIRLENNDNKPVTNSRDTQEVPLEKAKQVLKIISSYKHTTSIFDDFAHYEKRQEEEEVVRKERQSRNKQ
- binding (ALKBH1-Flag [4]): no binding

Results, then the binder that gave them:

- binding (YTHDF3-His): binds
B2: ALKBH1 (untagged, coexpressed with YTHDF3-His) (enzyme, UniProt Q13686 1-389)
chain: T4 sequence

- binding (ALKBH1-Flag [3]): binds
- binding (ALKBH1-Flag [4]): binds
B3: YTHDF3 (endogenous) (protein, UniProt Q7Z739 1-585)
chain: T1 sequence
